# Reference: publication PMC11260487, “YjgA plays dual roles in enhancing PTC maturation” (Nucleic Acids Research, 2024)
# B1: YjgA-D15A (natural protein)
# chain: not shown
# notes: YjgA, E. coli, 183 amino acids, point mutant D15A; made from pET28a-YjgA-FL; source: E. coli BL21 ΔyjgA, purified (Ni-NTA)
# Target: GST-uL16 (E. coli BL21, UniProt P0ADY7)
# Experiment: pull-down; GST-uL16 (0.5 mg) immobilised on Glutathione Sepharose 4B, incubated with YjgA or mutant protein (1 mg) in 1 ml pull-down buffer (20 mM Tris-HCl pH 8.0, 150 mM NaCl, 10% glycerol) for 2 h at 4°C; washed three times, eluted with 15 mM reduced glutathione, SDS-PAGE
# Conditions: both partners purified
binder,measurement,value
B1,binding result,binds
